Laboratory results from PubChem BioAssay AID504832 (National Center for Advancing Translational Sciences (NCATS), 2011).
Screen size: about 310,000 compounds; about 18,000 (5.8%) were called active. This list was built around the results that the source calls inconclusive (neither active nor inactive); the mix of calls is not that of the screen. Calls come from the whole dose curve; as a rule, active = well fitted inhibition curve with a large enough effect; inconclusive = small, poorly fitted or top-dose-only effect, or another doubt; inactive = no such curve, though single readings can be large or run the other way. No potency is given beside an inconclusive call; the fits are too rough. Some compounds were tested as several samples or in several runs, with calls that do not always agree.
% is set by controls: 0 for no effect and ±100 for the full control effect; potency is the fitted concentration of half-maximal effect; tags give direction and shape of the fitted curve.

Assay: Primary qHTS for delayed death inhibitors of the malarial parasite plastid, 48 hour incubation
Conditions: P. falciparum luciferase growth in erythrocytes; series mostly up to 28.7 µM; activity change, negative = inhibition: at the top concentration
How it was run: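 Firefly luciferase activity from engineered P. falciparum reports growth; inhibitors lower the luminescent signal. Cultures contained 2% hematocrit erythrocytes at 0.1% final parasitemia.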
With CN(c1ccccc1)S(=O)(=O)c1ccc(C(=O)NCC(c2ccco2)N2CCCCC2)cc1 (stereo not drawn) the Potency was inconclusive [inhibitor, partial curve, poor fit].
For CCCCn1c(SCc2cccnc2)nc2c1c(=O)n(C)c(=O)n2C, the Potency was inconclusive [inhibitor, partial curve, poor fit].
For NNC(=O)C(Cc1c[nH]c2ccccc12)NC(=O)c1ccccc1 (stereo not drawn), the Potency was inconclusive [inhibitor, partial curve, poor fit].
With CN=C1C=CC(=C(c2ccc(N(C)C)cc2)c2ccc(N(C)C)cc2)C=C1 the Potency was active: 0.213 µM.
In the case of COc1ccc(N2C(=O)/C(=C/c3cccs3)NC2=S)cc1, the “activity change, negative = inhibition” value is reported as inactive: 0.674%.
For CC(C)CN(CC(C)C)C(=O)Cc1coc2ccc3ccccc3c12, the Potency was inconclusive [inhibitor, partial curve, poor fit].
In the case of O=C1CCCC/C1=C/Nc1ccc(S(=O)(=O)Nc2ncccn2)cc1, the “activity change, negative = inhibition” value is reported as inactive: 1.66%.
For Cc1cc(C(=O)N2CCCC(Nc3ccc(F)cc3)C2)c(C)o1 (stereo not drawn), the “activity change, negative = inhibition” value was inactive: -8.81%.
With COCCCNC(=O)c1c(N)n(/N=C/c2cccnc2)c2nc3ccccc3nc12 the Potency was inconclusive [inhibitor, partial curve].
For COc1cc(/C=N/NC(=O)Nc2cccc3nsnc23)cc(OC)c1OC, the Potency was inconclusive [inhibitor, partial curve, poor fit].
In the case of Cc1ccccc1NC(=O)NC(N)=O, the “activity change, negative = inhibition” value is reported as inactive: 14.5%.
With CCC(C)c1ccc(NC(=O)c2[nH]c(C)c(C(C)=O)c2C)cc1 (stereo not drawn) the Potency was active: 4.65 µM.
In the case of CCC(=O)NC(=S)NNC(=O)c1ccc(NC(=O)c2ccccc2)cc1, the Potency is reported as inconclusive [inhibitor, single point].
For Cc1c(C(=O)NC(=S)Nc2ccc(NC(=O)c3cccs3)cc2)oc2ccccc12, the “activity change, negative = inhibition” value was inactive: -9.42%.
For O=C(COC(=O)COc1ccc(Cl)cc1Br)NCc1cccs1, the “activity change, negative = inhibition” value was inactive: 16.9%.
With Cc1cccc(-c2ccc3ncnc(NCc4cccs4)c3c2)c1 the Potency was active: 3.7 µM.
With Cc1cc(NC2CCCCC2)nc(NCc2ccccc2)n1 the Potency was active: 1.85 µM.
With CCCn1nc(C(=O)Nc2nc(-c3ccccn3)cs2)c2ccccc2c1=O the Potency was active: 4.15 µM.
For Cc1ccc(-n2c(SCC(=O)NCCN3C(=O)CSC3=O)nnc2-c2cccc(C)c2)cc1, the Potency was inconclusive [inhibitor, single point].
With Cc1cc(Cn2nc(-c3ccccc3)cc2C(=O)NCc2cccc(Br)c2)on1 the Potency was inconclusive [inhibitor, single point].
For CC1CCc2nc(NC(=O)CCSc3ccccc3)sc2C1 (stereo not drawn), the “activity change, negative = inhibition” value was inactive: 25.7%.
In the case of CCOC(=O)Cc1csc(NC(=O)CSc2nnnn2-c2ccc(CC)cc2)n1, the “activity change, negative = inhibition” value is reported as inactive: -8.69%.
With CCOC(=O)c1c(C)[nH]c(C(=O)CSc2nnc(C3CC3)n2N)c1C the Potency was active: 0.329 µM.
For CC(=O)Nc1ccc(S(=O)(=O)N2CCC(C(=O)NCCc3ccc(Cl)cc3)CC2)cc1, the Potency was inconclusive [inhibitor, partial curve].
In the case of COc1ccc(-c2nnc(SC(=O)N3c4ccccc4Sc4ccccc43)o2)cc1, the Potency is reported as inconclusive [inhibitor, single point].
With Cc1csc(NC(=O)C(Cc2ccccc2)n2cccc2)n1 (stereo not drawn) the Potency was inconclusive [inhibitor, single point].
For CC(=O)c1cccc(Nc2nc3ccccc3n3cnnc23)c1, the Potency was inconclusive [inhibitor, single point].
With CC1CCCC(NC(=O)C2N(CCCN3CCCC3)C(=O)C3C(C(=O)Nc4cccc(Cl)c4)C4C=CC32O4)C1C (stereo not drawn) the Potency was inconclusive [inhibitor, partial curve, poor fit].
For CCNc1nc(NCC)nc(N/N=C(\C)c2ccc(OC)cc2)n1, the “activity change, negative = inhibition” value was inactive: 3.03%.
For COc1cc(/C=C\C(=O)NCc2ccc3[nH]c(C)cc3c2)cc(OC)c1OC, the Potency was active: 11.7 µM.
In the case of COc1ccc(C)cc1NC(=O)C(OC(=O)c1cnccn1)c1ccccc1 (stereo not drawn), the Potency is reported as inconclusive [inhibitor, single point].
With OC(CCN1CCCCC1)(c1ccccc1)c1ccccc1 the Potency was inconclusive [inhibitor, partial curve, poor fit].
In the case of COc1ccc(/C=N/NC(=O)Cn2nc([N+](=O)[O-])cc2C)c(OC)c1OC, the Potency is reported as inconclusive [inhibitor, partial curve, poor fit].
For OC(CNC1CCCCC1)COCCOc1ccc(Br)cc1 (stereo not drawn), the Potency was active: 10.4 µM.
In the case of Cc1c(Cc2ccccc2)c(NCCCO)n2c(nc3ccccc32)c1C#N, the Potency is reported as inconclusive [inhibitor, partial curve].
For CCOC(=O)c1c(C)c(C(=O)NCc2cccs2)c(C)n1CC, the Potency was inconclusive [inhibitor, partial curve].
For COc1ccc(N(CC(=O)Nc2ccc(OC)cc2OC)S(=O)(=O)c2ccccc2)cc1, the Potency was inconclusive [inhibitor, single point].
With Cc1ccc(-c2nnc(Nc3ccc4c(c3)nc(C)n4C)c3ccccc23)cc1 the Potency was inconclusive [inhibitor, partial curve, poor fit].
In the case of COc1cc(OC)c(N(C)S(=O)(=O)c2cccc(C(=O)Nc3nc(C)cs3)c2)cc1Cl, the Potency is reported as active: 13.1 µM.
With C=CCOC(=O)C1=C(C)Nc2nc3ccccc3n2C1c1ccncc1 (stereo not drawn) the Potency was inconclusive [inhibitor, partial curve, poor fit].
With CCCOC(=O)/C(C(N)=NCc1ccccc1)=C(\O)OCCC the “activity change, negative = inhibition” value was inactive: -3.86%.
For Cc1ccsc1C1C(C#N)=C(N)N(N(C)C)C2=C1C(=O)CC(C)(C)C2 (stereo not drawn), the Potency was inconclusive [inhibitor, single point].
With CCCN(CC(=O)Nc1ccccc1C)C(=O)/C=C/c1ccc(S(=O)(=O)N2CCCCCC2)cc1 the Potency was active: 13.1 µM.
In the case of COc1ccc(S(=O)(=O)N(C)c2ccc(C(=O)N3CCC(C(N)=O)CC3)cc2)cc1, the Potency is reported as inconclusive [inhibitor, partial curve, poor fit].
For COc1ccccc1-c1c(C(F)(F)F)oc2cc(OCC(=O)Nc3ccccc3C(F)(F)F)ccc2c1=O, the Potency was inconclusive [inhibitor, single point].
With CC(=O)N(NC(=O)c1ccccc1Cl)C1CC(=O)N(c2ccc(C)cc2)C1=O (stereo not drawn) the Potency was inconclusive [inhibitor, full curve, poor fit].
With CC1CC(C)CN(S(=O)(=O)c2ccc3c(c2)oc(=O)n3CC(=O)NCc2cccnc2)C1 (stereo not drawn) the Potency was inconclusive [inhibitor, partial curve, poor fit].
With CCOC(=O)c1c(N)nn(C(=O)C(C)(C)C)c1-c1ccccc1 the “activity change, negative = inhibition” value was inactive: 8.64%.
In the case of CN(CC(=O)NCCN1CCN(Cc2ccccc2)CC1)S(=O)(=O)c1cccc2nsnc12, the Potency is reported as inconclusive [inhibitor, single point].
With CCC(C)Sc1nc2ccccc2c(=O)[nH]1 (stereo not drawn) the Potency was inconclusive [inhibitor, single point].
For N#Cc1ccccc1NCC(=O)N1CCN(S(=O)(=O)c2ccccc2)CC1, the Potency was inconclusive [inhibitor, partial curve].
In the case of O=C(CNC(=O)c1cccs1)N/N=C/c1c(F)cccc1Cl, the “activity change, negative = inhibition” value is reported as inactive: 54.4%.
In the case of CCOC(=O)NNc1ccc(C(F)(F)F)cn1, the “activity change, negative = inhibition” value is reported as inactive: 100%.
For Cc1cccc(/C=C/c2onc(C)c2S(=O)(=O)N2CCC(C(=O)NC(C)C)CC2)c1, the Potency was inconclusive [inhibitor, single point].
In the case of COc1ccc(C(=O)Nc2oc(-c3ccccc3)c(-c3ccccc3)c2C#N)cc1OC, the Potency is reported as inconclusive [inhibitor, single point].
In the case of Cc1ccc(-n2cc(CN3CCN(Cc4nccn4C)CC3)c(-c3ccc(F)cc3)n2)cc1, the Potency is reported as active: 6.57 µM.
With O=C(NCc1ccco1)C(c1ccc(F)cc1)N(CC1CCCO1)C(=O)Cn1nnc2ccccc21 (stereo not drawn) the “activity change, negative = inhibition” value was inactive: 0%.
With NC(=O)C1CCN(c2nc(-c3ccc4c(c3)OCCO4)cs2)CC1 the Potency was inconclusive [activator, full curve].
With COC(=O)C1=C(C(=O)c2ccccc2)C(c2ccc(OC)c(OC)c2)Nc2nnnn21 (stereo not drawn) the “activity change, negative = inhibition” value was inactive: -13.5%.
With CC(=O)N1c2ccc(S(=O)(=O)N3CCC(C(=O)N4CCN(c5ccc(Cl)cc5)CC4)CC3)cc2CC1C (stereo not drawn) the Potency was inconclusive [inhibitor, partial curve].
For O=C1N=C(N2CCOCC2)S/C1=C\c1ccc(OS(=O)(=O)c2ccccc2)cc1, the Potency was inconclusive [inhibitor, partial curve].
With NC(=O)CC(NC(=O)Cc1ccc(Br)cc1)c1ccc(NCc2ccc(F)cc2)c([N+](=O)[O-])c1 (stereo not drawn) the Potency was inconclusive [inhibitor, single point].
For Cc1nn(-c2ccccc2)c(C)c1C(=O)N1CCN(S(=O)(=O)c2ccccc2)CC1, the Potency was inconclusive [inhibitor, partial curve, poor fit].
In the case of COc1cc(CNn2c(C)n[nH]c2=S)cc(Cl)c1OCC(=O)NC(C)(C)C, the Potency is reported as inconclusive [inhibitor, single point].
In the case of O=C1N=C(N2CCCC2)S/C1=C\c1ccccc1, the Potency is reported as active: 14.7 µM.
For CCC(CO)NCc1ccc(-c2ccccc2)cc1 (stereo not drawn), the “activity change, negative = inhibition” value was inactive: 14.2%.
For Cc1cc(-c2cc(-c3ccc(Cl)cc3)nc(N)c2C#N)co1, the Potency was inconclusive [inhibitor, single point].
For CCCN1CCC(=O)N([C@H](CSc2ccc(Br)cc2)Cc2ccccc2)CC1, the Potency was inconclusive [inhibitor, full curve].
